From PubChem BioAssay AID485297 (National Center for Advancing Translational Sciences (NCATS), 2010)
Screen size: about 320,000 compounds; about 9,100 (2.8%) were called active. This list was built around the results that the source calls inconclusive (neither active nor inactive); the mix of calls is not that of the screen. Calls follow the shape of the dose curve; as a rule, active = well fitted activation curve with a large enough effect; inconclusive = small, poorly fitted or top-dose-only effect; inactive = no such curve, though single readings can be large or run the other way. No potency is given beside an inconclusive call; the fits are too rough.

Assay: qHTS Assay for Rab9 Promoter Activators; also: nearly all actives have a fitted effect of over 60% in size
Conditions: Huh7 Rab9 promoter-luciferase reporter, luminescence, 24 h; series mostly up to 9.22 µM
Outline: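 Measured in stably transfected Huh7 cells bearing a Rab9 promoter–luciferase construct: 24 h compound treatment at 37 °C, followed by luminescence detection.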
Potency is read from the fitted curve at half-maximal effect; tags tell the direction and shape of the fitted curve.

Row | Structure (SMILES) | Potency
1 | Cc1ccc(OCCn2c(=O)sc3ccccc32)cc1 | inconclusive [activator, single point]
2 | Nc1c(C(=O)c2ccccc2)oc2ccc(Br)cc12 | active: 3.55 µM
3 | CCCCNC(=S)N/N=C/c1ccccc1F | inconclusive [activator, partial curve]
4 | CC(C)CC(=O)N=Nc1c(O)[nH]c2ccccc12 | inconclusive [activator, partial curve]
5 | CC(CNC(=O)CCn1ccc2cc(S(=O)(=O)N3CCCC3)ccc21)c1ccccc1 (stereo not given) | inactive
6 | CCc1nnc2c3cnn(-c4ccccc4)c3ncn12 | inconclusive [activator, single point]
7 | Clc1nc(-c2n[nH]nc2Cl)n[nH]1 | inactive
8 | CCOc1ccc(S(=O)(=O)N2CCC(C(=O)NCc3ccccn3)CC2)cc1 | inactive
9 | COCCN1CCN(C(=O)c2ccc3oc(CCCc4ccccc4)nc3c2)CC1 | inconclusive [activator, partial curve]
10 | Cc1ccc(O)c(NC(=O)c2noc(C(C)C)c2[N+](=O)[O-])c1 | inactive
11 | O=C(Cc1cccs1)NCc1cccc(F)c1 | inconclusive [activator, partial curve]
12 | COc1cc(NC(=O)c2ccccc2)cc(OC)c1 | inconclusive [activator, partial curve]
13 | O=C(COC(=O)c1cccnc1Cl)Nc1ccc(N2CCCCC2)cc1 | inconclusive [activator, single point]
14 | CCc1nnc(NC(=O)c2ccc(Br)o2)s1 | inconclusive [activator, partial curve]
15 | COc1cccc(CN=C2Nc3ccccc3CS2)c1 | active: 3.16 µM
16 | COc1cccc(OCc2cc(/C=N/Nc3ccc(C(=O)O)cc3)ccc2OC)c1 | inconclusive [activator, partial curve]
17 | Cc1ccc2nc(NC(=O)COC(=O)c3ccc(Br)o3)sc2c1 | inconclusive [activator, single point]
18 | O=C1CCC/C(=N/NC(=O)c2sc3ccccc3c2Cl)C1 | inconclusive [activator, partial curve]
19 | C=C(C)CSc1nc(N)c2c3c(sc2n1)CCC3 | inconclusive [activator, partial curve]
20 | CCN(CC)c1ccc(/C=C(/C#N)C(=O)NCc2ccccc2)o1 | inconclusive [activator, single point]
21 | CCc1ccc(C(=O)COC(=O)c2ccc(-c3nnc(-c4ccccc4)o3)cc2)cc1 | active: 0.562 µM
22 | COc1c(C(=O)Nc2nccs2)ccc2ccccc12 | inconclusive [activator, partial curve]
23 | N#C/C(=N\Nc1ccc([N+](=O)[O-])cc1)C(=N)N1CCOCC1 | active: 2.82 µM
24 | O=C1CSC(c2cn(-c3ccccc3)nc2-c2ccccc2)N1Cc1ccco1 (stereo not given) | inactive
25 | Cc1cn2nc(N)c3ccccc3c2n1 | inactive

Row | Structure (SMILES) | Potency
26 | Cc1nn(-c2ccccc2)c(N)c1N=Nc1cccnc1 | inconclusive [activator, partial curve]
27 | O=C(/C=C/c1ccc(OCCCF)cc1)N1CCOCC1 | inconclusive [activator, partial curve]
28 | COc1ccccc1OCc1cc(C(=O)N2CCCC(OCc3cccnc3)C2)no1 (stereo not given) | active: 2.51 µM
29 | Cc1ccc(NC(=O)C2CCCN(C(=O)c3ccc(Cl)cc3)C2)cc1C (stereo not given) | inconclusive [activator, single point]
30 | CN(C)N=Nc1ccc(-c2cn(Cc3ccccc3)cn2)cc1 | inconclusive [activator, partial curve]
31 | O=C(O)c1nn(CC(=O)N2CCCCCC2)c(=O)c2ccccc12 | inactive
32 | Cc1nc2ccc(-c3nc4cc(N)ccc4o3)cc2[nH]1 | active: 0.398 µM
33 | O=C1NC(=O)/C(=C/c2ccc3nccnc3c2)S1 | inconclusive [activator, partial curve]
34 | COc1cccc(C(=O)Nc2nc3ccccc3s2)c1 | active: 2 µM
35 | CS(=O)(=O)c1cccc(C(=O)Nc2ccc3c(c2)OCCCO3)c1 | active: 3.55 µM
36 | CCCCOc1c(Cl)cc(C(=O)N(C)CC(=O)Nc2ccc(N3CCOCC3)cc2)cc1OCC | inactive
37 | Clc1ccc(-n2ncc3c(N4CCCC4)ncnc32)cc1 | active: 0.316 µM
38 | Cc1ccc2c(cnn2C(=O)CCCC(=O)NCc2ccc(Cl)cc2)c1 | inconclusive [activator, partial curve]
39 | Clc1ccccc1OCCn1cnc2ccccc21 | inconclusive [activator, single point]
40 | Cc1oc(C(C)(C)C)cc1C(=O)Nc1ccc(C(=O)O)cc1 | inconclusive [activator, partial curve]
41 | CCCCNC(=O)c1nnn(-c2ccccc2)c1N | inconclusive [activator, partial curve]
42 | COc1ccccc1-c1nnc(NC(=O)c2ccc3ncsc3c2)o1 | inconclusive [activator, partial curve]
43 | CCCOc1ccc(-c2nnc(-c3ccncc3)o2)cc1 | inconclusive [activator, partial curve]
44 | O=C(c1cc(-c2ccc3c(c2)OCO3)on1)N1CCCCC1 | active: 0.501 µM
45 | Cn1c2cc(Br)sc2c2cnn(Cc3ccc(F)cc3)c(=O)c21 | inactive
46 | CC(C)CN1C(=O)c2ccc(C(=O)Nc3ccccn3)cc2C1=O | inconclusive [activator, partial curve]
47 | Cn1nnc(NC(=O)c2cccc([N+](=O)[O-])c2)n1 | inactive
48 | CC(CNS(=O)(=O)c1cc(Cl)ccc1Cl)CN(C)C (stereo not given) | inconclusive [activator, single point]
49 | Cc1cccc(C)c1NC(=O)Nc1cccs1 | inconclusive [activator, partial curve]
50 | Nc1ccc(-c2nnc(-c3ccc(-c4ccccc4)cc3)o2)cc1 | active: 2.51 µM
